The campaign covered roughly 310,000 compounds. About 2,200 (0.71%) showed an effect of 50% or more. The effect is printed as a negative number. Some of the results follow.
target: human ether-à-go-go-related gene (hERG) potassium channel (human, UniProt Q12809); assay: primary screen, population patch clamp on CHO cells stably expressing hERG
Sequence (Q12809 whole entry, looked up): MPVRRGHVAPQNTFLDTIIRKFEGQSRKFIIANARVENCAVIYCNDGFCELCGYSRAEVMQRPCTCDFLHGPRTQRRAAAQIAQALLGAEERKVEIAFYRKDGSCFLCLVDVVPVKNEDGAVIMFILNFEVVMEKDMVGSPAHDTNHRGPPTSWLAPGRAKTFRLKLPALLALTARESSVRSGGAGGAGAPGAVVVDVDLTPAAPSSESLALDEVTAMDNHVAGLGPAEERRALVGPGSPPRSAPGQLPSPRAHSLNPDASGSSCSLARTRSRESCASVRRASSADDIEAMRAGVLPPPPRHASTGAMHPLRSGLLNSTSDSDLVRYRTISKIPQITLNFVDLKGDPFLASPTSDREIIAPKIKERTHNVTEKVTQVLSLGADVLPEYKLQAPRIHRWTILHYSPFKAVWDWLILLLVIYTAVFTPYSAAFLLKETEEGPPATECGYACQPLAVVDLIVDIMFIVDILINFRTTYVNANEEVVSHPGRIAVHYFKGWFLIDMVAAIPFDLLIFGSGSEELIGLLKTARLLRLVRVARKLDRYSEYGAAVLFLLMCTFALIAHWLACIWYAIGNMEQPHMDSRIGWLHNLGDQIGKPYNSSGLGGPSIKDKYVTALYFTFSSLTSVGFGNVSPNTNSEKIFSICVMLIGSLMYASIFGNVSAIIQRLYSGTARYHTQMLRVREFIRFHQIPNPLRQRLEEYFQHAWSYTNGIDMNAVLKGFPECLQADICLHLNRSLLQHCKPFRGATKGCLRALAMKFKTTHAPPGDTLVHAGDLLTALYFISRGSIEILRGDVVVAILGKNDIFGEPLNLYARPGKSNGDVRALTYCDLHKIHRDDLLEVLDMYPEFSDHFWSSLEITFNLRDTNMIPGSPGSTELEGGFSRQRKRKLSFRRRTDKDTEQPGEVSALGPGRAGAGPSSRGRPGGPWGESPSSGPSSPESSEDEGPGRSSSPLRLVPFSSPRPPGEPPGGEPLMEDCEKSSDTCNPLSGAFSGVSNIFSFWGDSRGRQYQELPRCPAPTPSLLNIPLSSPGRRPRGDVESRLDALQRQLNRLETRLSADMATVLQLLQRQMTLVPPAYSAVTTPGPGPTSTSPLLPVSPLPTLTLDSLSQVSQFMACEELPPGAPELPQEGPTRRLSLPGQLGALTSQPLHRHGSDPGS

SMILES | hERG current change (%, negative = inhibition) at 1uM
CC(Sc1ncnc2c1cnn2-c1ccccc1)C(=O)Nc1ccc(N2CCOCC2)cc1 (stereo not drawn) | 12.4%
CCOc1ccccc1C(=O)NCC(=O)NCC(c1ccc(OC)cc1)N1CCOCC1 (stereo not drawn) | 0.417%
CC(C)COC(=O)n1c(=O)oc2cc(S(=O)(=O)N3CCCCC3)ccc21 | -1.72%
CCOc1cc(/C=C(\CC(=O)O)c2nc3ccccc3s2)ccc1OC | 19.5%
Cc1cc(C)n2nc(C(=O)OCC(=O)Nc3ccc4c(c3)OCCO4)nc2n1 | 13.2%
CCn1ccnc1CN1CCN(CCC(C)C)C(CCO)C1 (stereo not drawn) | 6.84%
Nc1nc(SCn2nnc3ccccc3c2=O)n[nH]1 | 1.98%
CCOC(=O)C1(Cc2ccc(Cl)cc2)CCN(C(=O)C2=NNC(=O)CC2)CC1 | -61.2%
O=C(CSc1nnc(NC(=O)C2CC2)s1)Nc1ccc2c(c1)OCCO2 | 16.3%
COc1cc(O)c(C(CCN2CCN(c3ccccc3)CC2)c2ccc3c(c2)OCO3)c(OC)c1 (stereo not drawn) | 5.8%
CCn1c(O)c(N=Nc2cccc(S(=O)(=O)N3CCOCC3)c2)c(=O)n(CC)c1=S | -0.747%
COc1cccc(C(=O)CN2C(=O)C(C)(C)Oc3ccc(C(=O)N4CCCCCC4)cc32)c1 | 14.6%
CC(C)C[C@@H](CO)N1CCN(CCc2ccccc2)CCC1=O | -4.92%
COCC(=O)Nc1ccccc1C(=O)NC(C)C | 13.4%
COc1ccc(-c2nc(CSCC(=O)N3CCN(c4cccc(C)c4)C(C)C3)c(C)o2)cc1OC (stereo not drawn) | -6.85%
Cc1c(O)ccc(C(=O)CN2CC(C)OC(C)C2)c1O (stereo not drawn) | 14.7%
O=C(c1ccc(COc2ccccc2)o1)N1CCN(S(=O)(=O)c2ccccc2Cl)CC1 | 2.15%
O=C(CSc1nnc(CNc2ccc(F)cc2)n1Cc1ccccc1)NCc1ccccc1 | 14.1%
S=C(NCc1cccs1)Nc1cc(Cl)cc(Cl)c1 | 11%
Cc1[nH]n(-c2ccccc2)c(=O)c1/C=N/N(c1ccccc1)c1ccccc1 | 9.4%
CS(=O)(=O)Nc1ccc(C(=O)NCc2cccnc2)cc1 | 11.6%
Cc1ccc(C)c(OCCC(=O)Nc2ccc(S(=O)(=O)N3CCCC3)cc2)c1 | 13.8%
C/C(=N/O)c1cccc(N2Cc3ccccc3C2)c1 | 9.31%

SMILES | hERG current change (%, negative = inhibition) at 1uM
O=C(c1nc(-c2ccccc2)n(-c2ccccc2)n1)N1CCCCCC1 | -15.4%
O=C(Nc1ccccc1N1CCOCC1)c1ccncc1 | -3.34%
CCC(=O)NC(c1cccs1)c1ccc2cccnc2c1O (stereo not drawn) | 10.8%
Cc1cccc(CS(=O)(=O)Cc2ccc(C(=O)NCc3ccccc3)o2)c1 | 14.3%
COc1ccccc1NCCC(=O)OCC(=O)NC1CCCCCC1 | 9.91%
O=C(O)c1ccc(-n2cccc2/C=N\NC(=O)c2cc3cc(Br)ccc3o2)cc1 | 8.42%
C=CCn1c(SCc2c(C)noc2C)nc2sc3c(c2c1=O)CCCC3 | -8.57%
COc1ccc(CCn2c(=N)c(C(=O)NCC3CCCO3)cc3c(=O)n4cccc(C)c4nc32)cc1 (stereo not drawn) | -88.1%
COc1cccc(/C=N/NC(=O)c2ccc(N(C)S(=O)(=O)c3ccccc3)cc2)c1OC | 5.91%
COc1cc(-c2nc3ccccn3c2NCC2CCCO2)ccc1O (stereo not drawn) | 2.7%
CN(C)c1ccc(-n2cccc2)cc1 | 9.3%
O=C(CC1C(=O)NCCN1Cc1ccccc1C(F)(F)F)NC1CCCC1 (stereo not drawn) | 20.5%
CC(C)c1ccc(/C=C/C(=O)NCCCN2CCOCC2)cc1 | 3.8%
CC(C)C(=O)N=C1SC2CS(=O)(=O)CC2N1Cc1ccc(Cl)cc1 (stereo not drawn) | 11.5%
O=C(CCc1ccc(S(=O)(=O)N2CCCCC2)cc1)c1nnc(-c2ccccc2)o1 | 0.567%
CCOCCCNC(=O)c1c(C)[nH]c(C(=O)OCC)c1C | -3.15%
O=c1[nH]c(SCc2nc3ccccc3n2Cc2ccccc2)nc2ccccc12 | 8.95%
COc1ccccc1NC(=O)CN1CCN(c2ccccc2F)CC1 | 6.58%
COCCN(CC(=O)NCC1CCCO1)C(=O)CCC(=O)Nc1cc(C)ccn1 (stereo not drawn) | 7.71%
Cc1c(OCC(=O)NC(Cc2c[nH]c3ccc(O)cc23)C(=O)O)ccc2c3c(c(=O)oc12)CCC3 (stereo not drawn) | 8.79%
COc1cccc(C=Nc2cccnc2)c1O | 3.4%
CC(C)CCc1noc(CN(C)CCC2CCOCC2)n1 | 11.5%
C=CCNC(=O)Nc1ccc(F)c(Cl)c1 | 15.9%

SMILES | hERG current change (%, negative = inhibition) at 1uM
COCCCNC(=O)/C(C#N)=C/c1ccc(OCC(=O)O)c(OC)c1 | 14.1%
CN1C2CCC1/C(=C\c1ccc(F)cc1)C(=O)/C2=C/c1ccc(F)cc1 | 1.81%
COc1cc(NC(=O)COc2cc3oc(=O)cc(C)c3cc2Cl)cc(OC)c1OC | 18.6%
O=C(NCCS(=O)c1ccc(Cl)cc1)c1cccc(Cl)c1 (stereo not drawn) | 5.32%
N/C(=N\OC(=O)c1cccc(Br)c1)c1ccccn1 | 17%
CN(C(=O)c1cccc(C#N)c1)c1nnc(-c2ccccn2)s1 | 10.6%
O=C(N/N=C/c1cccnc1)c1ccc(NC(=O)C(c2ccccc2)c2ccccc2)cc1 | -4.74%
O=C(CCNC(=O)c1ccccc1Cl)NCC1CCCO1 (stereo not drawn) | -9.04%
Cc1cc(F)ccc1S(=O)(=O)NCC(c1cccnc1)N1CCc2ccccc21 (stereo not drawn) | 16.7%
O=C1CCC([N+](=O)[O-])C(c2cc3c(cc2Cl)OCO3)N1 (stereo not drawn) | 8.38%
COc1ccc(-c2nn(CCC#N)cc2C(=O)O)cc1 | 15.4%
CCNS(=O)(=O)c1ccc(CCC(=O)NCc2ccc(C)cc2)cc1 | -0.294%
NC(=O)N/N=C/c1c(O)ccc2oc3c(c12)CCCC3 | 9.96%
N#C/C(=C\c1ccccc1)C(=O)N(c1ccccn1)C1CCCCC1 | 2.24%
CCOc1ccc(-n2nnnc2SCC(=O)NNC(=O)c2ccco2)cc1 | 13.2%
O=C1CSC(c2ccccc2F)N1c1cc(Cl)ccc1O (stereo not drawn) | 2.62%
CCC(C)c1ccccc1NC(=O)COC(=O)C1=COCCO1 (stereo not drawn) | 4.52%
S=c1[nH]nc(-c2ccccc2Cl)n1CC1CCCO1 (stereo not drawn) | -6.01%
C=C1CCN([C@H](C(=O)O)C(C)C)S(=O)(=O)c2ccccc21 | 9.92%
Cc1ccc(C)c(NC(=O)c2ccc(OC(=O)c3ccco3)cc2)c1 | 0.693%
CCC(C)NC(=O)C1CCCN(c2nc(C)cc(OC)n2)C1 (stereo not drawn) | 15.8%
O=C(COC(=O)/C=C/c1ccc(C(F)(F)F)cc1)NCc1ccco1 | 9.44%
CCC(CC)NC(=O)c1cc(OC)c(OC)c(OC)c1 | 7.11%

SMILES | hERG current change (%, negative = inhibition) at 1uM
Br.CCCCCCCCCCn1ccc(=N)cc1 | -37.1%
C/C(=N\NC(=O)c1cccnc1)c1cc2ccccc2o1 | 1.78%
COc1cccc(/C=C/C(=O)NNC(=O)c2ccncc2)c1 | -8.5%
CCOc1cc(C2CC(=O)NC3=C2C(=O)C(C(=O)OC)C(C)C3)cc(Br)c1O (stereo not drawn) | 7.34%
O=C(Nc1ccc(O)cc1)c1ccc2c(c1)C(=O)N(Cc1ccco1)C2=O | -9.52%
COCC(C)n1c(C)cc(C(=O)COC(=O)c2nc3nc(C)cc(C)n3n2)c1C (stereo not drawn) | 11.6%
Cc1ccccc1NC(=O)c1ccccc1NC(=O)c1ccccc1F | 12.7%
N#CCCNS(=O)(=O)c1ccc(C(=O)OCCCOC(=O)c2ccc(S(=O)(=O)NCCC#N)cc2)cc1 | 12.9%
COc1cccc(CNC(=O)C2=Cc3cccc(OC)c3OC2)c1 | 14.6%
Fc1ccc(-c2nnn3c2nc(NCc2ccccc2)c2ccccc23)cc1 | 14.1%
O=C(Oc1ccccc1C(=S)N1CCOCC1)c1ccc([N+](=O)[O-])cc1[N+](=O)[O-] | 3.85%
O=c1oc2ccc(NS(=O)(=O)c3cccc4cccnc34)cc2s1 | 17.2%
CCOC(=O)C1CCCCN1Cc1ccc(F)cc1 (stereo not drawn) | 12.3%
CCC(CC)C(=O)N1CCN(c2ccccc2)CC1 | 5.52%
O=C1Nc2ccccc2Oc2cc([N+](=O)[O-])ccc21 | 13.2%
CCCCOc1cccc(C(=O)N(Cc2cccs2)C2CCS(=O)(=O)C2)c1 (stereo not drawn) | 4.37%
CC(C)(C)NC(=O)NC(=O)COC(=O)CCCc1c[nH]c2ccccc12 | -6.79%
N#Cc1nc(-c2cccs2)oc1NCCN1CCOCC1 | 0.102%
Cc1nn(C)c(Cl)c1/C=N/OC(=O)c1ccc(F)cc1 | 5.15%
CC(=O)NCCc1cc2ccc(C)cc2[nH]c1=O | 7.29%
C=CCn1cnc2c(c1=O)c1nc3ccccc3nc1n2-c1ccc(C)cc1 | -2.35%
